Experimental data reported in patent US20240270806A1 (Chugai, published 2024).
Changes are numbered by the printed parent chain.

B1: Bivalent IL-12 fusion protein FP8 (Ab101H-12aa-C4-L4-IL12006/Ab102L-SK1) (other)
heavy: QVQLVQSGAEVKKPGSSVKVSCKASGGTFSDYYLHWVRQAPGQGLEWMGWIDPENGDTEYAPKFQGRVTITADESTSTAYMELSSLRSEDTAVYYCARNKELRYFDVWGQGTLVTVSSTSTSGRSANPRGASTKGPSVFPLAPCSKSTSGGTAALGCLVKDYFPEPVTVSWNSGALTSGVHTFPAVLQSSGLYSLSSVVTVPSSSLGTQTYICNVNHKPSNTKVDKRVGGGGSGGGGS[human IgG1 Fc with changes cut from this listing]GSGGSGGSGGSGGSGGSIWELKKDVYVVELDWYPDAPGEMVVLTCDTPEEDGITWTLDQSSEVLGSGKTLTIQVKEFGDAGQYTCHKGGEVLSHSLLLLHKKEDGIWSTDILKDQKEPKNKTFLRCEAKQYSGRFTCWWLTTISTDLTFSVKSSRGSSDPQGVTCGAATLSAERVRGDNKEYEYSVECQEDSACPAAEESLPIEVMVDAVHKLKYEQYTSSFFIRDIIKPDPPKNLQLKPLKNSRQVEVSWEYPDTWSTPHSYFSLTFCVQVQGKSKREKKDRVFTDKTSATVICRKNASISVRAQDRYYSSSWSEWASVPCSGGGGSGGGGSGGGGSGGGGSRNLPVAAPDPGMFPCLHHSQNLLRAVSNMLQKARQTLEFYPCTSEEIDHEDITKDKTSTVEACLPLELTKQESCLNSRETSFITQGSCLASRKTSFMMALCLSSIYEDLKMYQVEFKTMNAKLLMDPKRQIFLDQNMLAVIDELMQALNFNSETVPQKSSLEEPDFYKTKIKLCILLHAFRIRAVTIDRVMSYLQAS
light: DIVMTQSPLSLPVTPGEPASISCRASQSISINLHWYQQKPGQAPRLLIYFASQSISGVPSRFSGSGSGTDFTLTISSLQPEDFATYYCQQSNSFPLTFGQGTKVEIKRTVAAPSVFIFPPSDEQLKSGTASVVCLLNNFYPREAKVQWKVDNALQSGNSQESVTEQDSKDSTYSLSSTLTLSKADYEKHKVYACEVTHQGLSSPVTKSFNRGEC
B2: Bivalent IL-12 fusion protein FP38 (other)
heavy: QVQLVQSGAEVKKPGSSVKVSCKASGGTFSDYYLHWSRQAPGQGLEWMGWIDPENGDTEYAPKFQGRVTITADESTSTAYMELSSLRSEDTAVYYCARNKELRYIDVWGQGTLVTVSSTSGSGRSATPRGASTKGPSVFPLAPCSKSTSGGTAALGCLVKDYFPEPVTVSWNSGALTSGVHTFPAVLQSSGLYSLSSVVTVPSSSLGTQTYICNVNHKPSNTKVDKRVGGGGSGGGGS[human IgG1 Fc with changes cut from this listing]GSGGSGGSGGSGGSGGSIWELKKDVYVVELDWLPDAPGEMVVLTCDTPEEDGITWTLDQSSEVLGSGKTLTIQVKEFGDAGQYTCHKGGEVLSHSLLLLHKKEDGIWSTDILKDQKEPKNKTFLRCEAKNYSGRFTCWWLTTISTDLTFSVKSSRGSSDPQGVTCGAATLSAERVRGDNKEYEYSVECQEDSACPAAEESLPIEVMVDAVHKLKYENYTSSFFIRDIIKPDPPKNLQLKPLKNSRQVEVSWEYPDTWSTPHSYFSLTFCVQVQGKHKEKKDRVFTDKTSATVICRKNASISVRAQDRYYSSSWSEWASVPCSGGGGSGGGGSGGGGSGGGGSNLPVATPDPGMFPCLHHSQNLLRAVSNMLQKARQTLEFYPCTSEEIDHEDITKDKTSTVEACLPLELTKNESCLNSRETSFITNGSCLASRKTSFMMALCLSSIYEDLKMYQVEFKTMNAKLLMDPKRQIFLDQNMLAVIDELMQALNFNSETVPQKSSLEEPDFYKTKIKLCILLHAFRIRAVTIDRVMSYLNAS
light: B1 light with L46Q, Y49A
B3: Bivalent IL-12 fusion protein FP34 (other)
heavy: QVQLVQSGAEVKKPGSSVKVSCKASGGTFSDYYLHWSRQAPGQGLEWMGWIDPENGDTEYAPKFQGRVTITADESTSTAYMELSSLRSEDTAVYYCARNKELRYIDVWGQGTLVTVSSTSGSGRSATPRGASTKGPSVFPLAPCSKSTSGGTAALGCLVKDYFPEPVTVSWNSGALTSGVHTFPAVLQSSGLYSLSSVVTVPSSSLGTQTYICNVNHKPSNTKVDKRVGGGGSGGGGS[human IgG1 Fc with changes cut from this listing]GSGGSGGSGGSGGSGGSIWELKKDVYVVELDWAPDAPGEMVVLTCDTPEEDGITWTLDQSSEVLGSGKTLTIQVKEFGDAGQYTCHKGGEVLSHSLLLLHKKEDGIWSTDILKDQKEPKNKTFLRCEAKNYSGRFTCWWLTTISTDLTFSVKSSRGSSDPQGVTCGAATLSAERVRGDNKEYEYSVECQEDSACPAAEESLPIEVMVDAVHKLKYENYTSSFFIRDIIKPDPPKNLQLKPLKNSRQVEVSWEYPDTWSTPHSYFSLTFCVQVQGKHKEKKDRVFTDKTSATVICRKNASISVRAQDRYYSSSWSEWASVPCSGGGGSGGGGSGGGGSGGGGSNLPVATPDPGMFPCLHHSQNLLRAVSNMLQKARQTLEFYPCTSEEIDHEDITKDKTSTVEACLPLELTKNESCLNSRETSFITNGSCLASRKTSFMMALCLSSIYEDLKMYQVEFKTMNAKLLMDPKRQIFLDQNMLAVIDELMQALNFNSETVPQKSSLEEPDFYKTKIKLCILLHAFRIRAVTIDRVMSYLNAS
light: B1 light with L46Q, Y49A
B4: Bivalent IL-12 fusion protein FP36 (other)
heavy: QVQLVQSGAEVKKPGSSVKVSCKASGGTFSDYYLHWSRQAPGQGLEWMGWIDPENGDTEYAPKFQGRVTITADESTSTAYMELSSLRSEDTAVYYCARNKELRYIDVWGQGTLVTVSSTSGSGRSATPRGASTKGPSVFPLAPCSKSTSGGTAALGCLVKDYFPEPVTVSWNSGALTSGVHTFPAVLQSSGLYSLSSVVTVPSSSLGTQTYICNVNHKPSNTKVDKRVGGGGSGGGGS[human IgG1 Fc with changes cut from this listing]GSGGSGGSGGSGGSGGSIWELKKDVYVVELDWHPDAPGEMVVLTCDTPEEDGITWTLDQSSEVLGSGKTLTIQVKEFGDAGQYTCHKGGEVLSHSLLLLHKKEDGIWSTDILKDQKEPKNKTFLRCEAKNYSGRFTCWWLTTISTDLTFSVKSSRGSSDPQGVTCGAATLSAERVRGDNKEYEYSVECQEDSACPAAEESLPIEVMVDAVHKLKYENYTSSFFIRDIIKPDPPKNLQLKPLKNSRQVEVSWEYPDTWSTPHSYFSLTFCVQVQGKHKEKKDRVFTDKTSATVICRKNASISVRAQDRYYSSSWSEWASVPCSGGGGSGGGGSGGGGSGGGGSNLPVATPDPGMFPCLHHSQNLLRAVSNMLQKARQTLEFYPCTSEEIDHEDITKDKTSTVEACLPLELTKNESCLNSRETSFITNGSCLASRKTSFMMALCLSSIYEDLKMYQVEFKTMNAKLLMDPKRQIFLDQNMLAVIDELMQALNFNSETVPQKSSLEEPDFYKTKIKLCILLHAFRIRAVTIDRVMSYLNAS
light: B1 light with L46Q, Y49A
B5: Bivalent IL-12 fusion protein FP47 (other)
heavy: QVQLVQSGAEVKKPGSSVKVSCKASGGTFSDYYLHWSRQAPGQGLEWMGWIDPENGDTEYAPKFQGRVTITADESTSTAYMELSSLRSEDTAVYYCARNKELRYIDVWGQGTLVTVSSYSATGRSANPRGASTKGPSVFPLAPCSKSTSGGTAALGCLVKDYFPEPVTVSWNSGALTSGVHTFPAVLQSSGLYSLSSVVTVPSSSLGTQTYICNVNHKPSNTKVDKRVGGGGSGGGGS[human IgG1 Fc with changes cut from this listing]GSGGSGGSGGSGGSGGSIWELKKDVYVVELDWPPDAPGEMVVLTCDTPEEDGITWTLDQSSEVLGSGKTLTIQVKEFGDAGQYTCHKGGEVLSHSLLLLHKKEDGIWSTDILKDQKEPKNKTFLRCEAKNYSGRFTCWWLTTISTDLTFSVKSSRGSSDPQGVTCGAATLSAERVRGDNKEYEYSVECQEDSACPAAEESLPIEVMVDAVHKLKYENYTSSFFIRDIIKPDPPKNLQLKPLKNSRQVEVSWEYPDTWSTPHSYFSLTFCVQVQGKHKEKKDRVFTDKTSATVICRKNASISVRAQDRYYSSSWSEWASVPCSGGGGSGGGGSGGGGSGGGGSNLPVATPDPGMFPCLHHSQNLLRAVSNMLQKARQTLEFYPCTSEEIDHEDITKDKTSTVEACLPLELTKNESCLNSRETSFITNGSCLASRKTSFMMALCLSSIYEDLKMYQVEFKTMNAKLLMDPKRQIFLDQNMLAVIDELMQALNFNSETVPQKSSLEEPDFYKTKIKLCILLHAFRIRAVTIDRVMSYLNAS
light: B1 light with L46Q, Y49A
B6: Bivalent IL-12 fusion protein FP29 (other)
heavy: QVQLVQSGAEVKKPGSSVKVSCKASGGTFSDYYLHWSRQAPGQGLEWMGWIDPENGDTEYAPKFQGRVTITADESTSTAYMELSSLRSEDTAVYYCARNKELRYIDVWGQGTLVTVSSTSGSGRSATPRGASTKGPSVFPLAPCSKSTSGGTAALGCLVKDYFPEPVTVSWNSGALTSGVHTFPAVLQSSGLYSLSSVVTVPSSSLGTQTYICNVNHKPSNTKVDKRVGGGGSGGGGS[human IgG1 Fc with changes cut from this listing]GSGGSGGSGGSGGSGGSIWELKKDVYVVELDWNPDAPGEMVVLTCDTPEEDGITWTLDQSSEVLGSGKTLTIQVKEFGDAGQYTCHKGGEVLSHSLLLLHKKEDGIWSTDILKDQKEPKNKTFLRCEAKNYSGRFTCWWLTTISTDLTFSVKSSRGSSDPQGVTCGAATLSAERVRGDNKEYEYSVECQEDSACPAAEESLPIEVMVDAVHKLKYENYTSSFFIRDIIKPDPPKNLQLKPLKNSRQVEVSWEYPDTWSTPHSYFSLTFCVQVQGKHKEKKDRVFTDKTSATVICRKNASISVRAQDRYYSSSWSEWASVPCSGGGGSGGGGSGGGGSGGGGSNLPVATPDPGMFPCLHHSQNLLRAVSNMLQKARQTLEFYPCTSEEIDHEDITKDKTSTVEACLPLELTKNESCLNSRETSFITNGSCLASRKTSFMMALCLSSIYEDLKMYQVEFKTMNAKLLMDPKRQIFLDQNMLAVIDELMQALNFNSETVPQKSSLEEPDFYKTKIKLCILLHAFRIRAVTIDRVMSYLNAS
light: B1 light with L46Q, Y49A
B7: Bivalent IL-12 fusion protein FP42 (other)
heavy: QVQLVQSGAEVKKPGSSVKVSCKASGGTFSDYYLHWSRQAPGQGLEWMGWIDPENGDTEYAPKFQGRVTITADESTSTAYMELSSLRSEDTAVYYCARNKELRYIDVWGQGTLVTVSSTSGSGRSATPRGASTKGPSVFPLAPCSKSTSGGTAALGCLVKDYFPEPVTVSWNSGALTSGVHTFPAVLQSSGLYSLSSVVTVPSSSLGTQTYICNVNHKPSNTKVDKRVGGGGSGGGGS[human IgG1 Fc with changes cut from this listing]GSGGSGGSGGSGGSGGSIWELKKDVYVVELDWSPDAPGEMVVLTCDTPEEDGITWTLDQSSEVLGSGKTLTIQVKEFGDAGQYTCHKGGEVLSHSLLLLHKKEDGIWSTDILKDQKEPKNKTFLRCEAKNYSGRFTCWWLTTISTDLTFSVKSSRGSSDPQGVTCGAATLSAERVRGDNKEYEYSVECQEDSACPAAEESLPIEVMVDAVHKLKYENYTSSFFIRDIIKPDPPKNLQLKPLKNSRQVEVSWEYPDTWSTPHSYFSLTFCVQVQGKHKEKKDRVFTDKTSATVICRKNASISVRAQDRYYSSSWSEWASVPCSGGGGSGGGGSGGGGSGGGGSNLPVATPDPGMFPCLHHSQNLLRAVSNMLQKARQTLEFYPCTSEEIDHEDITKDKTSTVEACLPLELTKNESCLNSRETSFITNGSCLASRKTSFMMALCLSSIYEDLKMYQVEFKTMNAKLLMDPKRQIFLDQNMLAVIDELMQALNFNSETVPQKSSLEEPDFYKTKIKLCILLHAFRIRAVTIDRVMSYLNAS
light: B1 light with L46Q, Y49A

biological target: T1, Human IL-12 receptor (human IL-12Rb1 and IL-12Rb2) (human, UniProt P42701 24-662; Q99665 24-862); test: cell-based or functional assay

Row | EC50 (read off the curve), IL-12 luciferase reporter assay (+ MTSP1) [top graph] [pM] | Binder
1 | ~300 | B1

biological target: T1, Human IL-12 receptor (human IL-12Rb1 …); test: cell-based or functional assay; remark: another data set of the same source

Row | Fold change (window), IL-12 luciferase assay [fold] | Binder
2 | 60 | B2
3 | 47.5 | B3
4 | 44.7 | B4
5 | 585 | B5
6 | 172 | B6
7 | 44 | B7
